# In PubChem BioAssay AID651820 (National Center for Advancing Translational Sciences (NCATS), 2012):
# About 12,000 (3.5%) of roughly 340,000 compounds were called active. The shares of active, inactive and inconclusive entries below differ from those in the screen. Calls follow the shape of the dose curve; as a rule, active = well fitted inhibition curve with a large enough effect; inconclusive = small, poorly fitted or top-dose-only effect, or another doubt; inactive = no such curve, though single readings can be large or run the other way. No potency is given beside an inconclusive call; the fits are too rough.
# Assay: qHTS Assay for Inhibitors of Hepatitis C Virus (HCV)
# Settings: Huh7.5.1 HCVcc-Cre (HCVcc is cell-culture hepatitis C virus) infection, luciferase reporter, 44 h; activity change, negative = inhibition: at 41.8 µM (top of the series) unless noted
# How it was run: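 Luciferase read-out (15 sec integration) after a 15 min room-temperature substrate step quantifies HCVcc-Cre infection. Cells, 1,000 per well, had compound added 4 h post-plating, then virus at ~0.5 moi, and were cultured 44 h.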
# % is scaled to controls: 0 for no effect and ±100 for the full control effect; potency is read from the fitted curve at half-maximal effect; tags tell the direction and shape of the fitted curve.
Compound,Potency,"activity change, negative = inhibition"
O=C(/C=C/Nc1ccccc1C(F)(F)F)c1ccco1,"inconclusive [inhibitor, full curve, poor fit]",
CC1CCCCN1C(=O)Cn1cc(C=O)c2ccccc21 (centres undefined),,inactive: -1.1%
N#Cc1sc2nc(-c3ccccc3)cc(-c3ccco3)c2c1N,active: 12.6 µM,
Cc1ccc(C)c(NC(=O)C(Sc2nc3ccc(C)cc3[nH]2)c2ccccc2)c1 (centres undefined),"inconclusive [inhibitor, single point]",
CC1=C(C(=O)OCC2CCCO2)C(c2ccsc2)C2=C(CC(C)(C)CC2=O)N1 (centres undefined),"inconclusive [inhibitor, partial curve, poor fit]",
O=C(CNCc1ccc(F)cc1)Nc1cc(S(=O)(=O)N2CCOCC2)ccc1Cl,"inconclusive [inhibitor, single point]",
COCCNC(=S)N1CCN(c2nc(-c3cccc(OC)c3)cs2)CC1,active: 12.6 µM,
CCOCCn1c(CN2CCN(C(c3ccccc3)c3ccccc3)CC2)nc2c1c(=O)n(C)c(=O)n2C,,inactive: 8.35%
Cn1c(SCC(=O)N2CCOCC2)nc2sc3c(c2c1=O)CCCC3,"inconclusive [inhibitor, partial curve]",
COc1ccc(OC)c(NC(=O)C2CC2c2ccccc2)c1 (centres undefined),"inconclusive [inhibitor, partial curve]",
COc1ccc2c(=O)cc(-c3ccccc3F)oc2c1,"inconclusive [inhibitor, single point]",
Cc1ccc(N2C(=O)c3ccccc3C2Nc2ccc(S(=O)(=O)N3CCCCC3)cc2)nc1 (centres undefined),"inconclusive [inhibitor, partial curve]",
COc1cccc(CNC(=O)CCC2CCCN(C(=O)c3cc4ccccc4o3)C2)c1 (centres undefined),"inconclusive [inhibitor, partial curve]",
COCCN1C(=O)/C(=C/c2ccc(Oc3ccc([N+](=O)[O-])cn3)c(OC)c2)SC1=Nc1ccccc1,"inconclusive [inhibitor, partial curve]",
CN(C)S(=O)(=O)c1cccc(NC(=O)CCSc2ccc(Cl)cc2)c1,active: 10 µM,
CCCCN(CC)c1nc(N)c(C#N)c(CC#N)c1C#N,,inactive: -28.5%
CC(=O)O[C@H]1C(=O)[C@]2(C)[C@H]([C@H](OC(=O)c3ccccc3)[C@]3(O)C[C@H](OC(=O)[C@H](O)[C@@H](NC(=O)c4ccccc4)c4ccccc4)C(C)=C1C3(C)C)[C@]1(OC(C)=O)CO[C@@H]1C[C@@H]2O,active: 6.31 µM,
O=C(Cc1ccc(Cl)cc1)Nc1ccc(S(=O)(=O)Nc2cnc3ccccc3n2)cc1,"inconclusive [inhibitor, single point]",
Cc1cc(C)nc(NS(=O)(=O)c2ccc(Br)s2)c1,,inactive: -17.3%
N#Cc1c(NC(=O)CSc2ncc(-c3ccccc3)n2CC2CCCO2)sc2c1CCCC2 (centres undefined),active: 11.2 µM,
Cc1cc(C)n(CC(O)COc2ccc(C(C)C)c(C)c2)n1 (centres undefined),"inconclusive [inhibitor, single point]",
NC(=O)c1ccc2c(=O)n3c(-c4cc(Cl)c(N)c(Cl)c4)csc3nc2c1,"inconclusive [inhibitor, single point]",
COc1ccccc1NC(=O)N1CCc2c([nH]c3ccccc23)C1C(F)(F)F (centres undefined),"inconclusive [inhibitor, single point]",

Compound,Potency,"activity change, negative = inhibition"
CN(CC(=O)Nc1ccc(N2CCOCC2)cc1)C(=O)CCCOc1ccc(Cl)cc1Cl,"inconclusive [inhibitor, single point]",
C/C(=N\Nc1nc(-c2ccccc2)cs1)c1cccs1,active: 2.82 µM,
COc1ccccc1C(=O)Nc1ccc2c(c1)nc1n2CCN(C2CCCCC2)C1,"inconclusive [inhibitor, full curve]",
C=CCC1(CC=C)CCCN1C(=O)c1cc(COc2ccc(C)nc2)on1,active: 0.794 µM,
COc1ccc(OC)c2sc(NC(=O)CCS(=O)(=O)c3ccccc3)nc12,"inconclusive [inhibitor, single point]",
CC(CCc1ccccc1)NCCC#N (centres undefined),,inactive: 8.18%
CS/C(N)=N/N=C/c1cc(C)ccc1O,"inconclusive [inhibitor, partial curve]",
Cn1nc(C(F)(F)F)c(CO)c1Sc1ccc(F)cc1,,inactive: -5.9%
O=C(c1ncc[nH]1)c1ccccc1Cl,,inactive: -0.543%
O=C(Nc1ccccc1N1CCCC1)C1CCN(S(=O)(=O)c2cccc(C(F)(F)F)c2)CC1,"inconclusive [inhibitor, partial curve]",
COc1ccc(CCn2c(=N)c(C(=O)NCC3CCCO3)cc3c(=O)n4cccc(C)c4nc32)cc1 (centres undefined),,inactive: -23.7%
CC1=C(Nc2ccc(C(=O)O)cc2)C(=O)c2ccccc2C1=O,"inconclusive [inhibitor, single point]",
COc1ccc(/C=N/NC(=O)c2nc(-c3ccccc3)cc(-c3ccccc3)n2)cc1,active: 10 µM,
CCc1ccc(NC(=O)c2cc3c(C)nc4ccccc4c3o2)cc1,"inconclusive [inhibitor, partial curve]",
COc1ccc(Cl)cc1C(=O)Nc1ccc(S(N)(=O)=O)cc1,"inconclusive [inhibitor, single point]",
Cc1ccc(C)c(OCCC(=O)Nc2ccc3c(c2)OCO3)c1,"inconclusive [inhibitor, partial curve]",
COc1cccc(C(=O)NCC(C)(C)SCc2ccc(F)cc2)c1,"inconclusive [inhibitor, partial curve]",
COc1ccc(/C=C/C(=O)OCC(=O)Nc2cccc(S(=O)(=O)NC3=NCCCCC3)c2)cc1,,inactive: -11.2%
O=C(c1ccc2c(=O)n(-c3ccccc3)c(=O)[nH]c2c1)N1CCN(c2ccc(F)cc2)CC1,"inconclusive [inhibitor, single point]",
CCOc1ccc(N(CC(=O)NC2CCCCC2)C(=O)CNC(=O)c2cccs2)cc1,,inactive: 27.1%
O=C(N/N=C/c1c(O)ccc2ccccc12)c1cccc(C(F)(F)F)c1,"inconclusive [inhibitor, full curve]",
COc1cc(C(=O)Nc2ccc(C)cn2)c([N+](=O)[O-])cc1OC,,inactive: 26.6%
Cc1ccc(-n2nnnc2SCC(=O)N2CCc3ccccc3C2)c(C)c1,active: 12.6 µM,

Compound,Potency,"activity change, negative = inhibition"
O=C(COc1ccccc1Cl)Nc1ccc(N2CCN(C(=O)c3ccccc3)CC2)cc1,active: 5.01 µM,
CCCOc1ccc2c3c(c(=O)oc2c1)CCCC3,"inconclusive [inhibitor, single point]",
Cc1noc(C)c1NC(=O)N(C)C[C@H]1Oc2c(NC(=O)Cc3ccccc3)cccc2C(=O)N([C@H](C)CO)C[C@@H]1C,"inconclusive [inhibitor, single point]",
Cc1sc2ncnc(NCC(O)c3ccccc3)c2c1C (centres undefined),active: 11.2 µM,
COc1cccc(C(=O)Nc2ccc(F)c(F)c2F)c1,,inactive: 10%
CCOC(=O)c1c(NC(=O)CSc2nc3c(c(=O)n(C)c(=O)n3C)n2C(C)C)sc(C)c1C,,inactive: 0.891%
O=C(NCc1cccnc1)c1sc2ccccc2c1Cl,"inconclusive [inhibitor, single point]",
CCOc1ccc(-c2nnc(NC3=NCCCCC3)o2)cc1,"inconclusive [inhibitor, single point]",
COc1ccc2[nH]c(C)c(CCNCc3cc(OC)c(OC)c(OC)c3)c2c1,"inconclusive [inhibitor, single point]",
COc1cccc(SCc2noc(C(=O)NCCN(C)C)c2C(=O)NCCN(C)C)c1,"inconclusive [inhibitor, partial curve]",
Cc1sc2nc(C3CC3)nc(NCCNS(=O)(=O)c3ccccc3)c2c1C,"inconclusive [inhibitor, partial curve]",
COc1ccc(Nc2nc(N3CCN(S(=O)(=O)N(C)C)CC3)nc3ccccc23)cc1,active: 11.2 µM,
Cc1nn(Cc2ccccc2)c(Cl)c1C(=O)OCc1nnc(-c2ccccc2)o1,"inconclusive [inhibitor, single point]",
COC(=O)C1=C(c2ccc(Cl)c(C(F)(F)F)c2)C[C@@H]2CC[C@H]1N2C(=O)NCCOc1ccc(OC)cc1,"inconclusive [inhibitor, single point]",
O=C(O)CC/C(=N/Nc1ccc([N+](=O)[O-])cc1)C(=O)O,,inactive: 0.61%
COc1ccc(N2C3=C(CC4=C2CC(C)(C)CC4=O)C(=O)CC(C)(C)C3)cc1,"inconclusive [inhibitor, single point]",
Cc1cccc(C(=O)Nc2cccc(C(=O)Nc3cc(C)ccn3)c2)c1,"inconclusive [inhibitor, single point]",
O=C(NCc1ccco1)c1cccn2c(=O)c3c4c(sc3nc12)CCCC4,"inconclusive [inhibitor, single point]",
O=C(CCn1cnnn1)Nc1ccccc1,,inactive: -2.74%
C/C(=N\N=C(N)N)c1cccc([N+](=O)[O-])c1,,inactive: 0.146%
CC[n+]1c(/C=C2/C=C(C)CC(C)(C)C2)sc2ccc(OC)cc21,"inconclusive [inhibitor, single point]",
OC[C@@H]1[C@@H](c2ccccc2)C(c2cccc(Cl)c2)=NN1c1ccccc1,"inconclusive [inhibitor, single point]",
Cc1ccccc1OCC(=O)Nc1ccccc1C(=O)NC1CC1,"inconclusive [inhibitor, single point]",
